Measurements published in the supplement of paper PMC8728848.
The list shows a part of the results.

How the values were obtained:
Experiment in all cases: glycan array binding signal (z-score within array); higher = stronger binding
Settings in all cases: glycan notation: IUPAC condensed, linker removed
[1] = target: Neu5Ac(a2-3)Gal(b1-3)[Fuc(a1-4)]GlcNAc
Outline: (§1)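 Arrays were curated from the Consortium for Functional Glycomics database, 3228 in total, and kept only where the protein sequence was available. Binding is expressed as a within-array Z-score. This score was averaged across arrays of the same protein sequence at different concentrations or buffers and across linkers, and negative values can be read as non-binding.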

[2] = target: Neu5Ac(a2-3)Gal(b1-3)[Fuc(a1-4)]GlcNAc(b1-3)Gal(b1-4)[Fuc(a1-3)]GlcNAc
Outline: as §1

[3] = target: Neu5Ac(a2-3)Gal(b1-3)[Neu5Ac(a2-3)Gal(b1-4)]GlcNAc
Outline: as §1

[4] = target: Neu5Ac(a2-3)Gal(b1-3)[Neu5Ac(a2-6)]GalNAc
Outline: as §1

Neu5Ac(a2-3)Gal(b1-4)Glc = target: Neu5Ac(a2-3)Gal(b1-4)Glc
Outline: as §1

[5] = target: Neu5Ac(a2-3)Gal(b1-4)GlcNAc
Outline: as §1

[6] = target: Neu5Ac(a2-3)Gal(b1-4)GlcNAc(b1-2)Man(a1-3)[GlcNAc(b1-2)Man(b1-4)GlcNAc(b1-2)Man(a1-6)]Man(b1-4)GlcNAc(b1-4)GlcNAc
Outline: as §1

[7] = target: Neu5Ac(a2-3)Gal(b1-4)GlcNAc(b1-2)Man(a1-3)[Neu5Ac(a2-6)Gal(b1-4)GlcNAc(b1-2)Man(a1-6)]Man(b1-4)GlcNAc(b1-4)GlcNAc
Outline: as §1

[8] = target: Neu5Ac(a2-3)Gal(b1-4)GlcNAc(b1-3)Gal(b1-3)GlcNAc
Outline: as §1

[9] = target: Neu5Ac(a2-3)Gal(b1-4)GlcNAc(b1-3)Gal(b1-4)GlcNAc
Outline: as §1

[10] = target: Neu5Ac(a2-3)Gal(b1-4)GlcNAc(b1-3)Gal(b1-4)GlcNAc(b1-3)Gal(b1-4)GlcNAc
Outline: as §1

[11] = target: Neu5Ac(a2-3)Gal(b1-4)GlcNAc(b1-3)Gal(b1-4)[Fuc(a1-3)]GlcNAc
Outline: as §1

[12] = target: Neu5Ac(a2-3)Gal(b1-4)GlcNAc(b1-6)[Gal(b1-3)]GalNAc
Outline: as §1

[13] = target: Neu5Ac(a2-3)Gal(b1-4)GlcNAc(b1-6)[Neu5Ac(a2-3)Gal(b1-3)]GalNAc
Outline: as §1

[14] = target: Neu5Ac(a2-3)Gal(b1-4)GlcNAc6S
Outline: as §1

[15] = target: Neu5Ac(a2-3)Gal(b1-4)[Fuc(a1-3)]GlcNAc
Outline: as §1

[16] = target: Neu5Ac(a2-3)Gal(b1-4)[Fuc(a1-3)]GlcNAc(b1-3)Gal
Outline: as §1

[17] = target: Neu5Ac(a2-3)Gal(b1-4)[Fuc(a1-3)]GlcNAc(b1-3)Gal(b1-4)GlcNAc
Outline: as §1

[18] = target: Neu5Ac(a2-3)Gal(b1-4)[Fuc(a1-3)]GlcNAc(b1-3)Gal(b1-4)[Fuc(a1-3)]GlcNAc(b1-3)Gal(b1-4)[Fuc(a1-3)]GlcNAc
Outline: as §1

[19] = target: Neu5Ac(a2-3)Gal(b1-4)[Fuc(a1-3)]GlcNAc(b1-6)[Gal(b1-3)]GalNAc
Outline: as §1

[20] = target: Neu5Ac(a2-3)Gal(b1-4)[Fuc(a1-3)]GlcNAc6S
Outline: as §1

[21] = target: Neu5Ac(a2-3)Gal6S(b1-4)GlcNAc
Outline: as §1

[22] = target: Neu5Ac(a2-3)Gal6S(b1-4)[Fuc(a1-3)]GlcNAc
Outline: as §1

Neu5Ac(a2-3)GalNAc = target: Neu5Ac(a2-3)GalNAc
Outline: as §1

[23] = target: Neu5Ac(a2-3)GalNAc(b1-4)GlcNAc
Outline: as §1

[24] = target: Neu5Ac(a2-3)[GalNAc(b1-4)]Gal(b1-4)Glc
Outline: as §1

[25] = target: Neu5Ac(a2-3)[GalNAc(b1-4)]Gal(b1-4)GlcNAc
Outline: as §1

[26] = target: Neu5Ac(a2-3)[Neu5Ac(a2-6)]GalNAc
Outline: as §1

Neu5Ac(a2-6)Gal = target: Neu5Ac(a2-6)Gal
Outline: as §1

Neu5Ac(a2-6)Gal(b1-4)Glc = target: Neu5Ac(a2-6)Gal(b1-4)Glc
Outline: as §1

[27] = target: Neu5Ac(a2-6)Gal(b1-4)GlcNAc
Outline: as §1

[28] = target: Neu5Ac(a2-6)Gal(b1-4)GlcNAc(b1-2)Man(a1-3)[Gal(b1-4)GlcNAc(b1-2)Man(a1-6)]Man(b1-4)GlcNAc(b1-4)GlcNAc
Outline: as §1

[29] = target: Neu5Ac(a2-6)Gal(b1-4)GlcNAc(b1-2)Man(a1-3)[GlcNAc(b1-2)Man(a1-6)]Man(b1-4)GlcNAc(b1-4)GlcNAc
Outline: as §1

[30] = target: Neu5Ac(a2-6)Gal(b1-4)GlcNAc(b1-2)Man(a1-3)[GlcNAc(b1-2)Man(b1-4)GlcNAc(b1-2)Man(a1-6)]Man(b1-4)GlcNAc(b1-4)GlcNAc
Outline: as §1

[31] = target: Neu5Ac(a2-6)Gal(b1-4)GlcNAc(b1-2)Man(a1-3)[Neu5Ac(a2-6)Gal(b1-4)GlcNAc(b1-2)Man(a1-6)]Man(b1-4)GlcNAc(b1-4)GlcNAc
Outline: as §1

[32] = target: Neu5Ac(a2-6)Gal(b1-4)GlcNAc(b1-2)Man(a1-6)[Gal(b1-4)GlcNAc(b1-2)Man(a1-3)]Man(b1-4)GlcNAc(b1-4)GlcNAc
Outline: as §1

[33] = target: Neu5Ac(a2-6)Gal(b1-4)GlcNAc(b1-2)Man(a1-6)[GlcNAc(b1-2)Man(a1-3)]Man(b1-4)GlcNAc(b1-4)GlcNAc
Outline: as §1

[34] = target: Neu5Ac(a2-6)Gal(b1-4)GlcNAc(b1-3)Gal(b1-4)GlcNAc
Outline: as §1

[35] = target: Neu5Ac(a2-6)Gal(b1-4)GlcNAc(b1-3)Gal(b1-4)[Fuc(a1-3)]GlcNAc(b1-3)Gal(b1-4)[Fuc(a1-3)]GlcNAc
Outline: as §1

[36] = target: Neu5Ac(a2-6)Gal(b1-4)GlcNAc6S
Outline: as §1

Neu5Ac(a2-6)GalNAc = target: Neu5Ac(a2-6)GalNAc
Outline: as §1

[37] = target: Neu5Ac(a2-6)GalNAc(b1-4)GlcNAc
Outline: as §1

Neu5Ac(a2-8)Neu5Ac = target: Neu5Ac(a2-8)Neu5Ac
Outline: as §1

[38] = target: Neu5Ac(a2-8)Neu5Ac(a2-3)Gal(b1-4)Glc
Outline: as §1

[39] = target: Neu5Ac(a2-8)Neu5Ac(a2-3)[GalNAc(b1-4)]Gal(b1-4)Glc
Outline: as §1

[40] = target: Neu5Ac(a2-8)Neu5Ac(a2-8)Neu5Ac
Outline: as §1

[41] = target: Neu5Ac(a2-8)Neu5Ac(a2-8)Neu5Ac(a2-3)Gal(b1-4)Glc
Outline: as §1

[42] = target: Neu5Ac(a2-8)Neu5Ac(a2-8)Neu5Ac(a2-3)[GalNAc(b1-4)]Gal(b1-4)Glc
Outline: as §1

[43] = target: Neu5Ac(a2-8)Neu5Ac(a2-8)Neu5Ac(a2-8)Neu5Ac(a2-3)[GalNAc(b1-4)]Gal(b1-4)Glc
Outline: as §1

[44] = target: Neu5Ac(b2-6)Gal(b1-4)GlcNAc
Outline: as §1

Neu5Ac(b2-6)GalNAc = target: Neu5Ac(b2-6)GalNAc
Outline: as §1

[45] = target: Neu5Ac9Ac(a2-6)Gal(b1-4)GlcNAc
Outline: as §1

[46] = target: Neu5Gc(a2-3)Gal(b1-3)GlcNAc
Outline: as §1

[47] = target: Neu5Gc(a2-3)Gal(b1-3)[Fuc(a1-4)]GlcNAc
Outline: as §1

Neu5Gc(a2-3)Gal(b1-4)Glc = target: Neu5Gc(a2-3)Gal(b1-4)Glc
Outline: as §1

[48] = target: Neu5Gc(a2-3)Gal(b1-4)GlcNAc
Outline: as §1

[49] = target: Neu5Gc(a2-3)Gal(b1-4)[Fuc(a1-3)]GlcNAc
Outline: as §1

[50] = target: Neu5Gc(a2-6)Gal(b1-4)GlcNAc
Outline: as §1

Neu5Gc(a2-6)GalNAc = target: Neu5Gc(a2-6)GalNAc
Outline: as §1

[51] = target: Neu5Gc(b2-6)Gal(b1-4)GlcNAc
Outline: as §1

B1: HFR-1 (Triticum aestivum) (protein)
chain: MSPQSFTLETTTTTPAAKGSDPSYFQSAPACHEMIQHKELLLHLYAYQNVQKTPDANQAVIVESKRPECFGILAANDWTVYDGPAHNANLVAHAQGLHLGASMAKENWFICFNMVFVNQRFTGSSFKVMGDFQGTAHNGEWAIVGGTGEFAYAQGVIAFKKTQQSERNARMELHVRAMCLSFLRPLLSLGDGSAVAKIGPWGKMSGELLDIPSTPQRLERITIRHGVVIDSLAFSFIDKAGEPYNVGPWGGRRGDNKDTIELAPSEIVTEVSGTVGIFAEDNVEYNAIASLTITTNHRPYGPFGETQSTPFSVPVQDNNNIVGFFACAGKYVEALGVYVRSPVST
[1]
  glycan array binding signal (z-score): -0.221
[2]
  glycan array binding signal (z-score): -0.207
[3]
  glycan array binding signal (z-score): -0.228
[4]
  glycan array binding signal (z-score): -0.142
Neu5Ac(a2-3)Gal(b1-4)Glc
  glycan array binding signal (z-score): -0.188
[5]
  glycan array binding signal (z-score): -0.221
[6]
  glycan array binding signal (z-score): -0.177
[7]
  glycan array binding signal (z-score): -0.218
[8]
  glycan array binding signal (z-score): -0.206
[9]
  glycan array binding signal (z-score): -0.189
[10]
  glycan array binding signal (z-score): -0.221
[11]
  glycan array binding signal (z-score): -0.212
[12]
  glycan array binding signal (z-score): -0.066
[13]
  glycan array binding signal (z-score): -0.224
[14]
  glycan array binding signal (z-score): -0.22
[15]
  glycan array binding signal (z-score): -0.064
[16]
  glycan array binding signal (z-score): -0.121
[17]
  glycan array binding signal (z-score): -0.187
[18]
  glycan array binding signal (z-score): -0.081
[19]
  glycan array binding signal (z-score): 0.098
[20]
  glycan array binding signal (z-score): -0.192
[21]
  glycan array binding signal (z-score): -0.213
[22]
  glycan array binding signal (z-score): -0.22
Neu5Ac(a2-3)GalNAc
  glycan array binding signal (z-score): -0.206
[23]
  glycan array binding signal (z-score): -0.172
[24]
  glycan array binding signal (z-score): -0.024
[25]
  glycan array binding signal (z-score): -0.165
[26]
  glycan array binding signal (z-score): -0.189
Neu5Ac(a2-6)Gal
  glycan array binding signal (z-score): -0.228
Neu5Ac(a2-6)Gal(b1-4)Glc
  glycan array binding signal (z-score): -0.192
[27]
  glycan array binding signal (z-score): -0.223
[28]
  glycan array binding signal (z-score): -0.196
[29]
  glycan array binding signal (z-score): -0.211
[30]
  glycan array binding signal (z-score): -0.187
[31]
  glycan array binding signal (z-score): -0.12
[32]
  glycan array binding signal (z-score): -0.222
[33]
  glycan array binding signal (z-score): -0.066
[34]
  glycan array binding signal (z-score): -0.221
[35]
  glycan array binding signal (z-score): -0.21
[36]
  glycan array binding signal (z-score): -0.187
Neu5Ac(a2-6)GalNAc
  glycan array binding signal (z-score): -0.031
[37]
  glycan array binding signal (z-score): -0.093
Neu5Ac(a2-8)Neu5Ac
  glycan array binding signal (z-score): -0.202
[38]
  glycan array binding signal (z-score): -0.144
[39]
  glycan array binding signal (z-score): -0.184
[40]
  glycan array binding signal (z-score): -0.214
[41]
  glycan array binding signal (z-score): -0.211
[42]
  glycan array binding signal (z-score): -0.078
[43]
  glycan array binding signal (z-score): 0.01
[44]
  glycan array binding signal (z-score): -0.205
Neu5Ac(b2-6)GalNAc
  glycan array binding signal (z-score): -0.141
[45]
  glycan array binding signal (z-score): -0.219
[46]
  glycan array binding signal (z-score): -0.226
[47]
  glycan array binding signal (z-score): -0.217
Neu5Gc(a2-3)Gal(b1-4)Glc
  glycan array binding signal (z-score): -0.132
[48]
  glycan array binding signal (z-score): -0.221
[49]
  glycan array binding signal (z-score): -0.219
[50]
  glycan array binding signal (z-score): -0.23
Neu5Gc(a2-6)GalNAc
  glycan array binding signal (z-score): 0.118
[51]
  glycan array binding signal (z-score): -0.197
